The supplement of paper PMC8728848
The list shows a part of the results.

What was measured:
Experiment in all cases: glycan array binding signal (z-score within array); higher = stronger binding
Conditions in all cases: glycan notation: IUPAC condensed, linker removed
[1] = target: Neu5Ac(a2-3)Gal(b1-4)GlcNAc(b1-6)GalNAc
In short: (§1)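 Glycan array data were curated from 3228 arrays in the Consortium for Functional Glycomics database and kept only where the protein sequence was available. Glycan names were converted to IUPAC-condensed notation, and columns mapping to the same glycan were averaged. The binding signal is a within-array Z-score, averaged across arrays of the same protein sequence at different concentrations or buffers and across linkers. Negative Z-scores can be read as non-binding.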

[2] = target: Neu5Ac(a2-3)Gal(b1-4)GlcNAc(b1-6)[Gal(b1-3)]GalNAc
In short: as §1

[3] = target: Neu5Ac(a2-3)Gal(b1-4)GlcNAc(b1-6)[Neu5Ac(a2-3)Gal(b1-3)]GalNAc
In short: as §1

[4] = target: Neu5Ac(a2-3)Gal(b1-4)GlcNAc6S
In short: as §1

[5] = target: Neu5Ac(a2-3)Gal(b1-4)[Fuc(a1-3)]GlcNAc
In short: as §1

[6] = target: Neu5Ac(a2-3)Gal(b1-4)[Fuc(a1-3)]GlcNAc(b1-2)Man
In short: as §1

[7] = target: Neu5Ac(a2-3)Gal(b1-4)[Fuc(a1-3)]GlcNAc(b1-3)Gal
In short: as §1

[8] = target: Neu5Ac(a2-3)Gal(b1-4)[Fuc(a1-3)]GlcNAc(b1-3)Gal(b1-4)GlcNAc
In short: as §1

[9] = target: Neu5Ac(a2-3)Gal(b1-4)[Fuc(a1-3)]GlcNAc(b1-3)Gal(b1-4)[Fuc(a1-3)]GlcNAc(b1-3)Gal(b1-4)[Fuc(a1-3)]GlcNAc
In short: as §1

[10] = target: Neu5Ac(a2-3)Gal(b1-4)[Fuc(a1-3)]GlcNAc(b1-3)GalNAc
In short: as §1

[11] = target: Neu5Ac(a2-3)Gal(b1-4)[Fuc(a1-3)]GlcNAc(b1-6)[Gal(b1-3)]GalNAc
In short: as §1

[12] = target: Neu5Ac(a2-3)Gal(b1-4)[Fuc(a1-3)]GlcNAc(b1-6)[Neu5Ac(a2-3)Gal(b1-3)]GalNAc
In short: as §1

[13] = target: Neu5Ac(a2-3)Gal(b1-4)[Fuc(a1-3)]GlcNAc6S
In short: as §1

[14] = target: Neu5Ac(a2-3)Gal6S(b1-4)GlcNAc
In short: as §1

[15] = target: Neu5Ac(a2-3)Gal6S(b1-4)[Fuc(a1-3)]GlcNAc
In short: as §1

Neu5Ac(a2-3)GalNAc = target: Neu5Ac(a2-3)GalNAc
In short: as §1

[16] = target: Neu5Ac(a2-3)GalNAc(b1-4)GlcNAc
In short: as §1

[17] = target: Neu5Ac(a2-3)[GalNAc(b1-4)]Gal(b1-4)Glc
In short: as §1

[18] = target: Neu5Ac(a2-3)[GalNAc(b1-4)]Gal(b1-4)GlcNAc
In short: as §1

[19] = target: Neu5Ac(a2-3)[GalNAc(b1-4)]Gal(b1-4)GlcNAc(b1-3)GalNAc
In short: as §1

[20] = target: Neu5Ac(a2-3)[Neu5Ac(a2-6)]GalNAc
In short: as §1

Neu5Ac(a2-6)Gal = target: Neu5Ac(a2-6)Gal
In short: as §1

[21] = target: Neu5Ac(a2-6)Gal(b1-3)GlcNAc(b1-3)[Gal(b1-4)GlcNAc(b1-6)]Gal(b1-4)Glc
In short: as §1

Neu5Ac(a2-6)Gal(b1-4)Glc = target: Neu5Ac(a2-6)Gal(b1-4)Glc
In short: as §1

[22] = target: Neu5Ac(a2-6)Gal(b1-4)GlcNAc
In short: as §1

[23] = target: Neu5Ac(a2-6)Gal(b1-4)GlcNAc(b1-2)Man
In short: as §1

[24] = target: Neu5Ac(a2-6)Gal(b1-4)GlcNAc(b1-2)Man(a1-3)Man(b1-4)GlcNAc(b1-4)GlcNAc
In short: as §1

[25] = target: Neu5Ac(a2-6)Gal(b1-4)GlcNAc(b1-2)Man(a1-3)[Gal(b1-4)GlcNAc(b1-2)Man(a1-6)]Man(b1-4)GlcNAc(b1-4)GlcNAc
In short: as §1

[26] = target: Neu5Ac(a2-6)Gal(b1-4)GlcNAc(b1-2)Man(a1-3)[GlcNAc(b1-2)Man(a1-6)]Man(b1-4)GlcNAc(b1-4)GlcNAc
In short: as §1

[27] = target: Neu5Ac(a2-6)Gal(b1-4)GlcNAc(b1-2)Man(a1-3)[GlcNAc(b1-4)][Neu5Ac(a2-6)Gal(b1-4)GlcNAc(b1-2)Man(a1-6)]Man(b1-4)GlcNAc(b1-4)GlcNAc
In short: as §1

[28] = target: Neu5Ac(a2-6)Gal(b1-4)GlcNAc(b1-2)Man(a1-3)[Man(a1-6)]Man(b1-4)GlcNAc(b1-4)GlcNAc
In short: as §1

B1: SBD-G4S3-Fc (protein)
chain: MASIPSSASVQLDSYNYDGSTFSGKIYVKNIAYSKKVTVVYADGSDNWNNNGNIIAASFSGPISGSNYEYWTFSASVKGIKEFYIKYEVSGKTYYDNNNSANYQVSTGGGGSGGGGSGGGGSEFVPRDCGCKPCICTVPEVSSVFIFPPKPKDVLTITLTPKVTCVVVDISKDDPEVQFSWFVDDVEVHTAQTQPREEQFNSTFRSVSELPIMHQDWLNGKEFKCRVNSAAFPAPIEKTISKTKGRPKAPQVYTIPPPKEQMAKDKVSLTCMITDFFPEDITVEWQWNGQPAENYKNTQPIMDTDGSYFVYSKLNVQKSNWEAGNTFTCSVLHEGLHNHHTEKSLSHSPGAA
glycan array binding signal (z-score) [1]: -0.109 | glycan array binding signal (z-score) [2]: 0.077 | glycan array binding signal (z-score) [3]: 0.04 | glycan array binding signal (z-score) [4]: -0.066 | glycan array binding signal (z-score) [5]: -0.343 | glycan array binding signal (z-score) [6]: -0.233 | glycan array binding signal (z-score) [7]: -0.272 | glycan array binding signal (z-score) [8]: 0.189 | glycan array binding signal (z-score) [9]: -0.379 | glycan array binding signal (z-score) [10]: -0.076 | glycan array binding signal (z-score) [11]: 0.362 | glycan array binding signal (z-score) [12]: -0.117 | glycan array binding signal (z-score) [13]: -0.046 | glycan array binding signal (z-score) [14]: -0.25 | glycan array binding signal (z-score) [15]: -0.454 | glycan array binding signal (z-score) (Neu5Ac(a2-3)GalNAc): -0.467 | glycan array binding signal (z-score) [16]: -0.239 | glycan array binding signal (z-score) [17]: -0.229 | glycan array binding signal (z-score) [18]: -0.269 | glycan array binding signal (z-score) [19]: 0.103 | glycan array binding signal (z-score) [20]: 0.066 | glycan array binding signal (z-score) (Neu5Ac(a2-6)Gal): -0.041 | glycan array binding signal (z-score) [21]: -0.05 | glycan array binding signal (z-score) (Neu5Ac(a2-6)Gal(b1-4)Glc): -0.384 | glycan array binding signal (z-score) [22]: -0.064 | glycan array binding signal (z-score) [23]: -0.16 | glycan array binding signal (z-score) [24]: 0.613 | glycan array binding signal (z-score) [25]: 0.029 | glycan array binding signal (z-score) [26]: 0.057 | glycan array binding signal (z-score) [27]: -0.262 | glycan array binding signal (z-score) [28]: -0.206
